Laboratory results taken from PubChem BioAssay AID1963576 (National Center for Advancing Translational Sciences (NCATS), 2024).
About 60 (0.1%) of roughly 46,000 compounds were called active. Not shown: some 3% with an inconclusive outcome. The call rests on the fitted dose curve; in most records, active means well fitted inhibition curve with a large enough effect; inconclusive means small, poorly fitted or top-dose-only effect; inactive means no such curve, though single readings can be large or run the other way. The list shows a part of the results.

experiment: Primary qHTS assay for Inhibitors of ovarian cancer metastasis using an organotypic tumor microenvironment (TME) model.; further: nearly all actives have a fitted effect of over 65% in size;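 on activity change, negative = inhibition: plate controls were DMSO wells for no effect and tomatine positive control wells for full effect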; details: SKOV3ip1-GFP adhesion/invasion on 3D omental model, fluorescence; series mostly up to 45.8 µM; activity change, negative = inhibition: at the top concentration
Method in brief: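 A 3D layer of primary human omental fibroblasts, mesothelial cells, fibronectin and collagen I, grown 48 hr, received SKOV3ip1-GFP cells in serum-free medium plus compounds at 0.36-46 umol/L. After 2 hr RT and 16 hr 37 C, fixed adherent GFP cells were counted; normalized to DMSO and tomatine.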

Activity change, negative = inhibition, inactive:
Cc1nc2c(C(=O)NCCC(C)C)cnn2c(C)c1Cc1c(F)cccc1Cl 3.01%
CC1CCCN(Cc2c(O)ccc3c(=O)c(-c4ccc(Cl)cc4)c(C(F)(F)F)oc23)C1 (stereo unspecified) 0.637%
CCOC(=O)C1CCCN(C(=O)C2CCN(S(=O)(=O)c3c(C)noc3/C=C/c3ccc(C)cc3)CC2)C1 (stereo unspecified) -13%
O=C(O)c1ccccc1NC(=O)N1c2ccccc2Sc2ccccc21 2.19%
COc1cccc2sc(N(Cc3cccnc3)C(=O)c3ccc(S(=O)(=O)N(C)C)cc3)nc12 11.5%
CCOC(=O)C1CCN(c2ncnc3c2c(-c2ccccc2)cn3-c2ccc(C)c(Cl)c2)CC1 -5.7%
CCc1cc(=O)[nH]c(SCc2nc(-c3ccccc3C)no2)n1 2.53%
COc1nnc(-c2ccc(N3CCCCC3)c(NC(=O)c3ccc(Cl)cc3)c2)c2ccccc12 5.97%
COc1ccc(-c2cc(C(F)(F)F)nc(SCC(=O)Nc3ccc(C(C)=O)cc3)n2)cc1 1.99%
Cc1cc(OCC(=O)Nc2ncn[nH]2)c(C)c(C)c1Br 52.3%
O=C(/C=C/c1cn(CC(O)CN2CCc3ccccc32)c2ccccc12)c1ccc(Br)cc1 (stereo unspecified) -9.56%
CCC(=O)N1c2ccc(S(=O)(=O)NCCc3ccccc3)cc2CC1C (stereo unspecified) -23.7%
COc1ccc(OC)c(NC(=O)c2nc(SCc3ccc(F)cc3)ncc2Cl)c1 -5.19%
Cc1ccc(CNS(=O)(=O)c2c(C(=O)N3CCC(C)CC3)c(C)n(C)c2C)cc1 -2.61%
CCOC(=O)c1[nH]c(C)c(CCC(=O)NCc2ccc(OC(C)C)cc2)c1C -2.31%
COC(=O)c1ccccc1NC(=O)N(Cc1ccc(C)cc1)Cc1cccn1-c1nnc(N2CCCC2=O)s1 -17.6%
CCc1ccc(S(=O)(=O)c2cn(CC(=O)Nc3cccc(C)c3)c3ccc(Cl)cc3c2=O)cc1 6.98%
Cc1cccc(NC(=O)CSc2nnc3c4ccccc4n(C)c3n2)c1 -15.5%
Cc1sc2ncn(CC(=O)Nc3ccc(C(F)(F)F)cc3)c(=O)c2c1S(=O)(=O)N1CCN(C)CC1 -6.9%
Cc1cc(Nc2cccc(O)c2)c2cccc(Br)c2n1 6.53%
COc1ccccc1[C@H](c1cccc2ccccc12)[C@@](C)(C#N)C(=O)N1CCC(c2cccc(C(F)(F)F)c2)CC1 -1.15%

outcome, inactive:
COc1cc2c(cc1OC)C(c1cc(OC)c(O)c(OC)c1)CC(=O)N2 (stereo unspecified)
Cc1cc(C)cc(N2C(=O)CS(=O)(=O)C23C(=O)N(Cc2ccccc2)c2ccccc23)c1 (stereo unspecified)
O=C(NCCc1csc(-c2ccc(F)cc2)n1)C(=O)Nc1ccc(Cl)cc1
COc1ccc(C)cc1NC(=O)C1CCN(S(=O)(=O)c2cccc3nonc23)CC1
COc1ccccc1NC(=O)Cn1c(=O)n(Cc2nc(-c3ccccc3)no2)c(=O)c2ccccc21
